# Test results from the supplement of paper PMC8728848.
# The list shows a part of the results.
# Columns and labels:
# Test in all cases: glycan array binding signal (z-score within array); higher = stronger binding
# Conditions in all cases: glycan notation: IUPAC condensed, linker removed
# [1] = molecular target: Gal(b1-3)[Fuc(a1-4)]GlcNAc(b1-3)Gal(b1-3)[Fuc(a1-4)]GlcNAc
# Method in brief: (§1)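 From the Consortium for Functional Glycomics database, 3228 arrays were curated, keeping only those whose protein sequence was available. Binding is given as a within-array Z-score averaged across arrays sharing a protein sequence and across linkers. Negative Z-scores can be read as non-binding.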
# [2] = molecular target: Gal(b1-3)[Fuc(a1-4)]GlcNAc(b1-3)Gal(b1-4)GlcNAc
# Method in brief: as §1
# [3] = molecular target: Gal(b1-3)[Fuc(a1-4)]GlcNAc(b1-3)Gal(b1-4)[Fuc(a1-3)]GlcNAc
# Method in brief: as §1
# [4] = molecular target: Gal(b1-3)[Fuc(a1-4)]GlcNAc(b1-6)GalNAc
# Method in brief: as §1
# [5] = molecular target: Gal(b1-3)[GlcNAc(b1-6)]GalNAc
# Method in brief: as §1
# [6] = molecular target: Gal(b1-3)[Neu5Ac(a2-6)]GalNAc
# Method in brief: as §1
# [7] = molecular target: Gal(b1-3)[Neu5Ac(a2-6)]GlcNAc(b1-4)Gal(b1-4)Glc
# Method in brief: as §1
# [8] = molecular target: Gal(b1-3)[Neu5Ac(a2-6)]GlcNAc(b1-6)Gal(b1-4)Glc
# Method in brief: as §1
# [9] = molecular target: Gal(b1-3)[Neu5Ac(b2-6)]GalNAc
# Method in brief: as §1
# [10] = molecular target: Gal(b1-4)Gal
# Method in brief: as §1
# [11] = molecular target: Gal(b1-4)GalNAc(a1-3)[Fuc(a1-2)]Gal(b1-4)GlcNAc
# Method in brief: as §1
# [12] = molecular target: Gal(b1-4)GalNAc(b1-3)[Fuc(a1-2)]Gal(b1-4)GlcNAc
# Method in brief: as §1
# [13] = molecular target: Gal(b1-4)Glc
# Method in brief: as §1
# [14] = molecular target: Gal(b1-4)Glc6S
# Method in brief: as §1
# [15] = molecular target: Gal(b1-4)GlcNAc
# Method in brief: as §1
# [16] = molecular target: Gal(b1-4)GlcNAc(a1-6)Gal(b1-4)GlcNAc
# Method in brief: as §1
# [17] = molecular target: Gal(b1-4)GlcNAc(b1-2)Man
# Method in brief: as §1
# [18] = molecular target: Gal(b1-4)GlcNAc(b1-2)Man(a1-3)Man(b1-4)GlcNAc(b1-4)GlcNAc
# Method in brief: as §1
# [19] = molecular target: Gal(b1-4)GlcNAc(b1-2)Man(a1-3)[Gal(b1-4)GlcNAc(b1-2)Man(a1-6)]Man(b1-4)GlcNAc(b1-4)GlcNAc
# Method in brief: as §1
# [20] = molecular target: Gal(b1-4)GlcNAc(b1-2)Man(a1-3)[Gal(b1-4)GlcNAc(b1-2)Man(a1-6)]Man(b1-4)GlcNAc(b1-4)[Fuc(a1-6)]GlcNAc
# Method in brief: as §1
# [21] = molecular target: Gal(b1-4)GlcNAc(b1-2)Man(a1-3)[Gal(b1-4)GlcNAc(b1-2)Man(a1-6)][Gal(b1-4)GlcNAc(b1-4)]Man(b1-4)GlcNAc(b1-4)[Fuc(a1-6)]GlcNAc
# Method in brief: as §1
# [22] = molecular target: Gal(b1-4)GlcNAc(b1-2)Man(a1-3)[Gal(b1-4)GlcNAc(b1-2)Man(a1-6)][GlcNAc(b1-4)]Man(b1-4)GlcNAc(b1-4)[Fuc(a1-6)]GlcNAc
# Method in brief: as §1
# [23] = molecular target: Gal(b1-4)GlcNAc(b1-2)Man(a1-3)[Gal(b1-4)GlcNAc(b1-2)][GlcNAc(b1-4)]Man(b1-4)GlcNAc(b1-4)GlcNAc
# Method in brief: as §1
# [24] = molecular target: Gal(b1-4)GlcNAc(b1-2)Man(a1-3)[GlcNAc(b1-2)Man(a1-6)]Man(b1-4)GlcNAc(b1-4)GlcNAc
# Method in brief: as §1
# [25] = molecular target: Gal(b1-4)GlcNAc(b1-2)Man(a1-3)[GlcNAc(b1-4)][Gal(b1-4)GlcNAc(b1-2)Man(a1-6)]Man(b1-4)GlcNAc(b1-4)GlcNAc
# Method in brief: as §1
# [26] = molecular target: Gal(b1-4)GlcNAc(b1-2)Man(a1-3)[Man(a1-6)]Man(b1-4)GlcNAc(b1-4)GlcNAc
# Method in brief: as §1
# [27] = molecular target: Gal(b1-4)GlcNAc(b1-2)Man(a1-6)Man(b1-4)GlcNAc(b1-4)GlcNAc
# Method in brief: as §1
# [28] = molecular target: Gal(b1-4)GlcNAc(b1-2)Man(a1-6)[GlcNAc(b1-2)Man(a1-3)]Man(b1-4)GlcNAc(b1-4)GlcNAc
# Method in brief: as §1
# [29] = molecular target: Gal(b1-4)GlcNAc(b1-2)Man(a1-6)[Man(a1-3)]Man(b1-4)GlcNAc(b1-4)GlcNAc
# Method in brief: as §1
# [30] = molecular target: Gal(b1-4)GlcNAc(b1-2)[Gal(b1-4)GlcNAc(b1-4)]Man(a1-3)[Gal(b1-4)GlcNAc(b1-2)Man(a1-6)]Man(b1-4)GlcNAc(b1-4)GlcNAc
# Method in brief: as §1
# [31] = molecular target: Gal(b1-4)GlcNAc(b1-2)[Gal(b1-4)GlcNAc(b1-4)]Man(a1-3)[Gal(b1-4)GlcNAc(b1-2)[Gal(b1-4)GlcNAc(b1-6)]Man(a1-6)]Man(b1-4)GlcNAc(b1-4)GlcNAc
# Method in brief: as §1
# [32] = molecular target: Gal(b1-4)GlcNAc(b1-2)[Gal(b1-4)GlcNAc(b1-4)]Man(a1-3)[GlcNAc(b1-4)][Gal(b1-4)GlcNAc(b1-2)Man(a1-6)]Man(b1-4)GlcNAc(b1-4)GlcNAc
# Method in brief: as §1
# [33] = molecular target: Gal(b1-4)GlcNAc(b1-2)[Gal(b1-4)GlcNAc(b1-4)]Man(a1-3)[GlcNAc(b1-4)][Gal(b1-4)GlcNAc(b1-2)[Gal(b1-4)GlcNAc(b1-6)]Man(a1-6)]Man(b1-4)GlcNAc(b1-4)GlcNAc
# Method in brief: as §1
# [34] = molecular target: Gal(b1-4)GlcNAc(b1-2)[Gal(b1-4)GlcNAc(b1-6)]Man(a1-6)[Gal(b1-4)GlcNAc(b1-2)Man(a1-3)]Man(b1-4)GlcNAc(b1-4)GlcNAc
# Method in brief: as §1
# [35] = molecular target: Gal(b1-4)GlcNAc(b1-2)[Gal(b1-4)GlcNAc(b1-6)]Man(a1-6)[Gal(b1-4)GlcNAc(b1-2)Man(a1-3)]Man(b1-4)GlcNAc(b1-4)[Fuc(a1-6)]GlcNAc
# Method in brief: as §1
# [36] = molecular target: Gal(b1-4)GlcNAc(b1-2)[Gal(b1-4)GlcNAc(b1-6)]Man(a1-6)[GlcNAc(b1-4)][Gal(b1-4)GlcNAc(b1-2)Man(a1-3)]Man(b1-4)GlcNAc(b1-4)GlcNAc
# Method in brief: as §1
# [37] = molecular target: Gal(b1-4)GlcNAc(b1-2)[Gal(b1-4)GlcNAc(b1-6)]Man(a1-6)[GlcNAc(b1-4)][Gal(b1-4)GlcNAc(b1-2)[Gal(b1-4)GlcNAc(b1-4)]Man(a1-3)]Man(b1-4)GlcNAc(b1-4)[Fuc(a1-6)]GlcNAc
# Method in brief: as §1
# [38] = molecular target: Gal(b1-4)GlcNAc(b1-3)Gal(b1-3)GalNAc
# Method in brief: as §1
# [39] = molecular target: Gal(b1-4)GlcNAc(b1-3)Gal(b1-3)GlcNAc
# Method in brief: as §1
# [40] = molecular target: Gal(b1-4)GlcNAc(b1-3)Gal(b1-4)Glc
# Method in brief: as §1
# [41] = molecular target: Gal(b1-4)GlcNAc(b1-3)Gal(b1-4)GlcNAc
# Method in brief: as §1
# [42] = molecular target: Gal(b1-4)GlcNAc(b1-3)Gal(b1-4)GlcNAc(b1-2)Man(a1-3)[Gal(b1-4)GlcNAc(b1-3)Gal(b1-4)GlcNAc(b1-2)Man(a1-6)]Man(b1-4)GlcNAc(b1-4)GlcNAc
# Method in brief: as §1
# [43] = molecular target: Gal(b1-4)GlcNAc(b1-3)Gal(b1-4)GlcNAc(b1-2)Man(a1-3)[Gal(b1-4)GlcNAc(b1-3)Gal(b1-4)GlcNAc(b1-2)Man(a1-6)]Man(b1-4)GlcNAc(b1-4)[Fuc(a1-6)]GlcNAc
# Method in brief: as §1
# [44] = molecular target: Gal(b1-4)GlcNAc(b1-3)Gal(b1-4)GlcNAc(b1-2)[Gal(b1-4)GlcNAc(b1-3)Gal(b1-4)GlcNAc(b1-6)]Man(a1-6)[Gal(b1-4)GlcNAc(b1-3)Gal(b1-4)GlcNAc(b1-2)Man(a1-3)]Man(b1-4)GlcNAc(b1-4)GlcNAc
# Method in brief: as §1
# [45] = molecular target: Gal(b1-4)GlcNAc(b1-3)Gal(b1-4)GlcNAc(b1-2)[Gal(b1-4)GlcNAc(b1-3)Gal(b1-4)GlcNAc(b1-6)]Man(a1-6)[Gal(b1-4)GlcNAc(b1-3)Gal(b1-4)GlcNAc(b1-2)Man(a1-3)]Man(b1-4)GlcNAc(b1-4)[Fuc(a1-6)]GlcNAc
# Method in brief: as §1
binder,measurement,setting,value
rAAL-2 (Agrocybe aegerita) (protein) MTSNVITQDLPIPVASRGFADIVGFGLDGVVIGRNAVNLQPFLAVKNFAQNAGGWLTTKHVRLIADTTGTGKGDIVGFGNAGVYVSVNNGKNTFADPPKMVIANFGYDAGGWRVEKHLRYLADIRKIGRADIIGFGEKGVLVSRNNGGLNFGPATLVLKDFGYDAGGWRLDRHLRFLADVTGNGHLDIVGFGDKHVFISRNNGDGTFAPAKSVIDNFCIDAGGWKIGDHPRFVADLTGDGTADIIGCGKAGCWVALNNGGGVFGQVKLVINDFGTDKGWQAAKHPRFIADLTGNGRGDVVGFGNAGVYVALNNGDGTFQSAKLVLKDFGVQQGWTVSKHRRFVVDLTGDGCADIIGFGEKETLVSYNDGKGNFGPVKALTNDFSFSGGKWAPETTVCWMANLDSSRH,glycan array binding signal (z-score),[1],-0.328
same,glycan array binding signal (z-score),[2],-0.246
same,glycan array binding signal (z-score),[3],-0.404
same,glycan array binding signal (z-score),[4],-0.064
same,glycan array binding signal (z-score),[5],-0.212
same,glycan array binding signal (z-score),[6],-0.18
same,glycan array binding signal (z-score),[7],-0.326
same,glycan array binding signal (z-score),[8],-0.269
same,glycan array binding signal (z-score),[9],-0.279
same,glycan array binding signal (z-score),[10],-0.213
same,glycan array binding signal (z-score),[11],-0.033
same,glycan array binding signal (z-score),[12],-0.327
same,glycan array binding signal (z-score),[13],-0.135
same,glycan array binding signal (z-score),[14],-0.155
same,glycan array binding signal (z-score),[15],-0.135
same,glycan array binding signal (z-score),[16],-0.315
same,glycan array binding signal (z-score),[17],-0.16
same,glycan array binding signal (z-score),[18],-0.126
same,glycan array binding signal (z-score),[19],-0.327
same,glycan array binding signal (z-score),[20],-0.267
same,glycan array binding signal (z-score),[21],-0.282
same,glycan array binding signal (z-score),[22],-0.482
same,glycan array binding signal (z-score),[23],-0.266
same,glycan array binding signal (z-score),[24],-0.269
same,glycan array binding signal (z-score),[25],-0.61
same,glycan array binding signal (z-score),[26],-0.217
same,glycan array binding signal (z-score),[27],-0.233
same,glycan array binding signal (z-score),[28],-0.177
same,glycan array binding signal (z-score),[29],-0.355
same,glycan array binding signal (z-score),[30],-0.261
same,glycan array binding signal (z-score),[31],-0.304
same,glycan array binding signal (z-score),[32],-0.183
same,glycan array binding signal (z-score),[33],-0.301
same,glycan array binding signal (z-score),[34],-0.42
same,glycan array binding signal (z-score),[35],-0.252
same,glycan array binding signal (z-score),[36],-0.303
same,glycan array binding signal (z-score),[37],-0.503
same,glycan array binding signal (z-score),[38],-0.28
same,glycan array binding signal (z-score),[39],-0.112
same,glycan array binding signal (z-score),[40],-0.317
same,glycan array binding signal (z-score),[41],-0.201
same,glycan array binding signal (z-score),[42],0.021
same,glycan array binding signal (z-score),[43],-0.429
same,glycan array binding signal (z-score),[44],-0.308
same,glycan array binding signal (z-score),[45],-0.236
